# Source: the supplement of paper PMC8728848
# The other results are listed elsewhere or left out.
# B1: RS2L (Ralstonia solanacearum), B5RXL5_RALSO (protein)
# chain: MAQQGVFTLPANTSFGVTAFANAANTQTIQVLVDNVVKATFTGSGTSDKLLGSQVLNSGSGAIKIQVSVNGKPSDLVSNQTILANKLNFAMVGSEDGTDNDYNDGIAVLNWPLG
# What was measured:
# Experiment in all cases: glycan array binding signal (z-score within array); higher = stronger binding
# Conditions in all cases: glycan notation: IUPAC condensed, linker removed
# [1] = molecular target: GlcNAc(a1-4)Gal(b1-4)GlcNAc(b1-3)Gal(b1-4)GlcNAc
# How it was run: (§1)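 Columns mapping to the same glycan were averaged after glycan names were converted to IUPAC-condensed notation. The data come from 3228 arrays in the Consortium for Functional Glycomics database, limited to those with an available protein sequence. Binding is reported as a within-array Z-score averaged across arrays of one protein sequence and across linkers.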
# [2] = molecular target: GlcNAc(a1-4)Gal(b1-4)GlcNAc(b1-3)Gal(b1-4)GlcNAc(b1-3)Gal(b1-4)GlcNAc
# How it was run: as §1
# [3] = molecular target: GlcNAc(a1-4)Gal(b1-4)GlcNAc(b1-3)Gal(b1-4)[Fuc(a1-3)]GlcNAc(b1-3)Gal(b1-4)[Fuc(a1-3)]GlcNAc
# How it was run: as §1
# [4] = molecular target: GlcNAc(a1-6)Gal(b1-4)GlcNAc
# How it was run: as §1
# [5] = molecular target: GlcNAc(b1-2)Gal(b1-3)GalNAc
# How it was run: as §1
# [6] = molecular target: GlcNAc(b1-2)Man(a1-3)[GlcNAc(b1-2)Man(a1-6)]Man(b1-4)GlcNAc(b1-4)GlcNAc
# How it was run: as §1
# [7] = molecular target: GlcNAc(b1-2)Man(a1-3)[GlcNAc(b1-2)Man(a1-6)]Man(b1-4)GlcNAc(b1-4)[Fuc(a1-6)]GlcNAc
# How it was run: as §1
# [8] = molecular target: GlcNAc(b1-2)Man(a1-3)[GlcNAc(b1-4)][GlcNAc(b1-2)Man(a1-6)]Man(b1-4)GlcNAc(b1-4)GlcNAc
# How it was run: as §1
# [9] = molecular target: GlcNAc(b1-2)[GlcNAc(b1-4)]Man(a1-3)[GlcNAc(b1-2)Man(a1-6)]Man(b1-4)GlcNAc(b1-4)GlcNAc
# How it was run: as §1
# [10] = molecular target: GlcNAc(b1-2)[GlcNAc(b1-4)]Man(a1-3)[GlcNAc(b1-4)][GlcNAc(b1-2)Man(a1-6)]Man(b1-4)GlcNAc(b1-4)GlcNAc
# How it was run: as §1
# [11] = molecular target: GlcNAc(b1-2)[GlcNAc(b1-4)]Man(a1-3)[GlcNAc(b1-4)][GlcNAc(b1-2)[GlcNAc(b1-6)]Man(a1-6)]Man(b1-4)GlcNAc(b1-4)GlcNAc
# How it was run: as §1
# [12] = molecular target: GlcNAc(b1-2)[GlcNAc(b1-6)]Man(a1-6)[GlcNAc(b1-2)Man(a1-3)]Man(b1-4)GlcNAc(b1-4)GlcNAc
# How it was run: as §1
# [13] = molecular target: GlcNAc(b1-2)[GlcNAc(b1-6)]Man(a1-6)[GlcNAc(b1-2)Man(a1-3)][GlcNAc(b1-4)]Man(b1-4)GlcNAc(b1-4)GlcNAc
# How it was run: as §1
# GlcNAc(b1-3)Gal = molecular target: GlcNAc(b1-3)Gal
# How it was run: as §1
# [14] = molecular target: GlcNAc(b1-3)Gal(b1-3)GalNAc
# How it was run: as §1
# GlcNAc(b1-3)Gal(b1-4)Glc = molecular target: GlcNAc(b1-3)Gal(b1-4)Glc
# How it was run: as §1
# [15] = molecular target: GlcNAc(b1-3)Gal(b1-4)GlcNAc
# How it was run: as §1
# [16] = molecular target: GlcNAc(b1-3)Gal(b1-4)GlcNAc(b1-3)Gal(b1-4)GlcNAc
# How it was run: as §1
# GlcNAc(b1-3)GalNAc = molecular target: GlcNAc(b1-3)GalNAc
# How it was run: as §1
# GlcNAc(b1-3)Man = molecular target: GlcNAc(b1-3)Man
# How it was run: as §1
# [17] = molecular target: GlcNAc(b1-3)[GlcNAc(b1-4)][GlcNAc(b1-6)]GlcNAc
# How it was run: as §1
# [18] = molecular target: GlcNAc(b1-3)[GlcNAc(b1-6)]Gal(b1-4)GlcNAc
# How it was run: as §1
# [19] = molecular target: GlcNAc(b1-3)[GlcNAc(b1-6)]GalNAc
# How it was run: as §1
# [20] = molecular target: GlcNAc(b1-4)Gal(b1-4)GlcNAc
# How it was run: as §1
# GlcNAc(b1-4)GlcNAc = molecular target: GlcNAc(b1-4)GlcNAc
# How it was run: as §1
# [21] = molecular target: GlcNAc(b1-4)GlcNAc(b1-4)GlcNAc
# How it was run: as §1
# [22] = molecular target: GlcNAc(b1-4)GlcNAc(b1-4)GlcNAc(b1-4)GlcNAc(b1-4)GlcNAc
# How it was run: as §1
# [23] = molecular target: GlcNAc(b1-4)GlcNAc(b1-4)GlcNAc(b1-4)GlcNAc(b1-4)GlcNAc(b1-4)GlcNAc
# How it was run: as §1
# [24] = molecular target: GlcNAc(b1-4)[GlcNAc(b1-6)]GalNAc
# How it was run: as §1
# [25] = molecular target: GlcNAc(b1-6)Gal(b1-4)GlcNAc
# How it was run: as §1
# GlcNAc(b1-6)GalNAc = molecular target: GlcNAc(b1-6)GalNAc
# How it was run: as §1
# GlcNAc3Prop(b1-4)GlcNAc = molecular target: GlcNAc3Prop(b1-4)GlcNAc
# How it was run: as §1
# [26] = molecular target: GlcNAc6S(b1-3)Gal(b1-4)GlcNAc
# How it was run: as §1
# Kdn(a2-3)Gal(b1-3)GalNAc = molecular target: Kdn(a2-3)Gal(b1-3)GalNAc
# How it was run: as §1
# Kdn(a2-3)Gal(b1-3)GlcNAc = molecular target: Kdn(a2-3)Gal(b1-3)GlcNAc
# How it was run: as §1
# Kdn(a2-3)Gal(b1-4)Glc = molecular target: Kdn(a2-3)Gal(b1-4)Glc
# How it was run: as §1
# Kdn(a2-3)Gal(b1-4)GlcNAc = molecular target: Kdn(a2-3)Gal(b1-4)GlcNAc
# How it was run: as §1
# [27] = molecular target: Kdn(a2-3)Gal(b1-4)[Fuc(a1-3)]GlcNAc
# How it was run: as §1
# Kdn(a2-6)Gal(b1-4)GlcNAc = molecular target: Kdn(a2-6)Gal(b1-4)GlcNAc
# How it was run: as §1
# [28] = molecular target: Man(a1-2)Man(a1-2)Man(a1-3)Man
# How it was run: as §1
# [29] = molecular target: Man(a1-2)Man(a1-2)Man(a1-6)[Man(a1-3)]Man
# How it was run: as §1
# Man(a1-2)Man(a1-3)Man = molecular target: Man(a1-2)Man(a1-3)Man
# How it was run: as §1
# [30] = molecular target: Man(a1-2)Man(a1-3)[Man(a1-2)Man(a1-6)]Man
# How it was run: as §1
# [31] = molecular target: Man(a1-2)Man(a1-3)[Man(a1-2)Man(a1-6)]Man(a1-6)[Man(a1-2)Man(a1-2)Man(a1-3)]Man
# How it was run: as §1
# [32] = molecular target: Man(a1-2)Man(a1-3)[Man(a1-2)Man(a1-6)]Man(a1-6)[Man(a1-2)Man(a1-2)Man(a1-3)]Man(b1-4)GlcNAc(b1-4)GlcNAc
# How it was run: as §1
binder,measurement,setting,value
B1,glycan array binding signal (z-score),[1],-0.159
same,glycan array binding signal (z-score),[2],-0.229
same,glycan array binding signal (z-score),[3],-0.12
same,glycan array binding signal (z-score),[4],-0.232
same,glycan array binding signal (z-score),[5],-0.247
same,glycan array binding signal (z-score),[6],-0.242
same,glycan array binding signal (z-score),[7],-0.193
same,glycan array binding signal (z-score),[8],-0.232
same,glycan array binding signal (z-score),[9],-0.194
same,glycan array binding signal (z-score),[10],-0.243
same,glycan array binding signal (z-score),[11],-0.242
same,glycan array binding signal (z-score),[12],-0.187
same,glycan array binding signal (z-score),[13],-0.223
same,glycan array binding signal (z-score),GlcNAc(b1-3)Gal,-0.254
same,glycan array binding signal (z-score),[14],-0.245
same,glycan array binding signal (z-score),GlcNAc(b1-3)Gal(b1-4)Glc,-0.244
same,glycan array binding signal (z-score),[15],-0.241
same,glycan array binding signal (z-score),[16],-0.245
same,glycan array binding signal (z-score),GlcNAc(b1-3)GalNAc,-0.249
same,glycan array binding signal (z-score),GlcNAc(b1-3)Man,-0.251
same,glycan array binding signal (z-score),[17],-0.247
same,glycan array binding signal (z-score),[18],-0.245
same,glycan array binding signal (z-score),[19],-0.247
same,glycan array binding signal (z-score),[20],-0.24
same,glycan array binding signal (z-score),GlcNAc(b1-4)GlcNAc,-0.244
same,glycan array binding signal (z-score),[21],-0.243
same,glycan array binding signal (z-score),[22],-0.247
same,glycan array binding signal (z-score),[23],-0.248
same,glycan array binding signal (z-score),[24],-0.243
same,glycan array binding signal (z-score),[25],-0.247
same,glycan array binding signal (z-score),GlcNAc(b1-6)GalNAc,-0.245
same,glycan array binding signal (z-score),GlcNAc3Prop(b1-4)GlcNAc,-0.254
same,glycan array binding signal (z-score),[26],-0.246
same,glycan array binding signal (z-score),Kdn(a2-3)Gal(b1-3)GalNAc,-0.218
same,glycan array binding signal (z-score),Kdn(a2-3)Gal(b1-3)GlcNAc,-0.239
same,glycan array binding signal (z-score),Kdn(a2-3)Gal(b1-4)Glc,-0.242
same,glycan array binding signal (z-score),Kdn(a2-3)Gal(b1-4)GlcNAc,-0.25
same,glycan array binding signal (z-score),[27],-0.237
same,glycan array binding signal (z-score),Kdn(a2-6)Gal(b1-4)GlcNAc,-0.251
same,glycan array binding signal (z-score),[28],1.84
same,glycan array binding signal (z-score),[29],6.32
same,glycan array binding signal (z-score),Man(a1-2)Man(a1-3)Man,1.42
same,glycan array binding signal (z-score),[30],3.34
same,glycan array binding signal (z-score),[31],6.92
same,glycan array binding signal (z-score),[32],3.42
